Data on one molecule can be found in PMC7295996, “Structural basis for chemokine receptor CCR6 activation by the endogenous protein ligand CCL20” (Nature Communications, 2020).

The assay deals with T1, human wild-type CCR6 (S2 to M374) with N-terminal FLAG-tagged BRIL fusion and C-terminal 10x His-tag (human, UniProt P51684 2-374).
T1 construct: C-C chemokine receptor 6 (CCR6), human, wild type, residues S2 to M374; BRIL is fused to the N terminus of the receptor; no density for BRIL or for S2 to Y26 in the map (model built from Y27 to C336); also called chemokine receptor CCR6; not shown: FLAG, N-terminal, kept; BRIL (thermostabilized apocytochrome b562), N-terminal, kept
T1 sequence (looked up): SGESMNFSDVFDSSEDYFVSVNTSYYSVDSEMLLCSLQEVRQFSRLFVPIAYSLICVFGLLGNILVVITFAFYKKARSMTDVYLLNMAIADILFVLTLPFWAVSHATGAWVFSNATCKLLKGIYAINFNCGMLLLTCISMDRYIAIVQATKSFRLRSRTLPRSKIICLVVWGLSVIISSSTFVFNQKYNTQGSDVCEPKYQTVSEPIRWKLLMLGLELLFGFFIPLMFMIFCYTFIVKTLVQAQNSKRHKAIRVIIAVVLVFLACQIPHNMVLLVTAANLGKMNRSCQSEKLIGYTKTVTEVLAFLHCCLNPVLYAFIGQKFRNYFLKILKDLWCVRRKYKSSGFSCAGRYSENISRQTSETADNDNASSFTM
Description: cryo-EM structure; CCR6, G protein heterotrimer and CCL20 mixed 1:1.2:10, 20 °C 2 h; apyrase; scFv16 added 1:1.2 CCR6:scFv16, on ice 1 h; complex purified on M2 anti-FLAG resin by the FLAG tag of CCR6; 20 mM HEPES pH 7.5, 100 mM NaCl, 0.001% LMNG/0.0002% CHS; map at 3.3 Å. Particulars: both partners purified.

B1: wild-type CCL20 ([…]) with the native N-terminal alanine (ligand)
chain: not shown
notes: C-C motif chemokine 20 (CCL20), native processed form CCL20 ([…]) that begins with NH2-ASNFD; released by TEV cleavage at ENLYFQ/A. numbers count on: the mature protein; also called WT CCL20; full-length CCL20; source: E. coli Origami 2, as calmodulin fusion, purified (nickel-NTA, TEV digestion, HiTrap S); not shown: His10, N-terminal, cleaved; calmodulin, N-terminal, cleaved
As to B1, the binding result is listed as “binds”.
